# From the supplement of paper PMC8728848
# The list shows a part of the results.
# B1: GS7807H-bfa-490-18-490 (Bacteroides fragilis) (protein)
# chain: GNLEEMNIDPDNATQTHPKLLLTQICMNAFKRGTDGMYATKKVIQADGESADQYYKWTRGSFGYYDNLRNVQKMGEEAERVNAPVYTALTKFFRAYYFYELTLRFGDIPYSQALKGEKEEIYTPEYDAQEDVFAGILQELREADEILANDASVIDGDIIYNGNSTQWRKLINSFRLKVLMTLSNHTTVGNINIASEFKNIATNSPLMNSLADNGQLVYLDQQGNRYPQFNAQWSGYYMDDTFIQRMRERRDPRLFIFSAQTNKGKTEGKPIDDFSSYEGGDPAAPYSDAIIKVSEGTISPINDRFRTDPIVEPTMLMGYAELQQILAEAVVRGWISGNAQTYYEKGIRASFSFYETHAKDYAGYLNENAVAQYLKEPLVDFTQASGTEEQIERIIMQKYLVTFYQGNWDSFYEQLRTGYPDFRRPAGTEIPKRWMYPQGEYDNNGTNVETAITRQFGAGNDKINQATWWQKKS
# Columns and labels:
# Test in all cases: glycan array binding signal (z-score within array); higher = stronger binding
# Settings in all cases: glycan notation: IUPAC condensed, linker removed
# [1] = target: Fuc(a1-2)Gal6S(b1-3)GlcNAc6S
# Outline: (§1)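 The Consortium for Functional Glycomics database supplied 3228 glycan arrays, of which those lacking an available protein sequence were dropped. The binding signal, a within-array Z-score, was averaged across arrays of the same protein sequence and across linkers. Negative scores can be read as non-binding.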
# Fuc(a1-2)Gal6S(b1-4)Glc = target: Fuc(a1-2)Gal6S(b1-4)Glc
# Outline: as §1
# [2] = target: Fuc(a1-2)Gal6S(b1-4)Glc6S
# Outline: as §1
# Fuc(a1-2)[Gal(a1-3)]Gal = target: Fuc(a1-2)[Gal(a1-3)]Gal
# Outline: as §1
# [3] = target: Fuc(a1-2)[Gal(a1-3)]Gal(b1-3)GalNAc
# Outline: as §1
# [4] = target: Fuc(a1-2)[Gal(a1-3)]Gal(b1-3)GalNAc(b1-3)Gal(a1-4)Gal(b1-4)Glc
# Outline: as §1
# [5] = target: Fuc(a1-2)[Gal(a1-3)]Gal(b1-3)GlcNAc
# Outline: as §1
# [6] = target: Fuc(a1-2)[Gal(a1-3)]Gal(b1-3)GlcNAc(b1-2)Man(a1-3)[Fuc(a1-2)[Gal(a1-3)]Gal(b1-3)GlcNAc(b1-2)Man(a1-6)]Man(b1-4)GlcNAc(b1-4)GlcNAc
# Outline: as §1
# [7] = target: Fuc(a1-2)[Gal(a1-3)]Gal(b1-3)GlcNAc(b1-2)Man(a1-3)[Fuc(a1-2)[Gal(a1-3)]Gal(b1-3)GlcNAc(b1-2)Man(a1-6)]Man(b1-4)GlcNAc(b1-4)[Fuc(a1-6)]GlcNAc
# Outline: as §1
# [8] = target: Fuc(a1-2)[Gal(a1-3)]Gal(b1-3)GlcNAc(b1-3)GalNAc
# Outline: as §1
# [9] = target: Fuc(a1-2)[Gal(a1-3)]Gal(b1-3)GlcNAc(b1-6)GalNAc
# Outline: as §1
# [10] = target: Fuc(a1-2)[Gal(a1-3)]Gal(b1-4)Glc
# Outline: as §1
# [11] = target: Fuc(a1-2)[Gal(a1-3)]Gal(b1-4)GlcNAc
# Outline: as §1
# [12] = target: Fuc(a1-2)[Gal(a1-3)]Gal(b1-4)GlcNAc(b1-2)Man
# Outline: as §1
# [13] = target: Fuc(a1-2)[Gal(a1-3)]Gal(b1-4)GlcNAc(b1-2)Man(a1-3)[Fuc(a1-2)[Gal(a1-3)]Gal(b1-4)GlcNAc(b1-2)Man(a1-6)]Man(b1-4)GlcNAc(b1-4)GlcNAc
# Outline: as §1
# [14] = target: Fuc(a1-2)[Gal(a1-3)]Gal(b1-4)GlcNAc(b1-2)Man(a1-3)[Fuc(a1-2)[Gal(a1-3)]Gal(b1-4)GlcNAc(b1-2)Man(a1-6)]Man(b1-4)GlcNAc(b1-4)[Fuc(a1-6)]GlcNAc
# Outline: as §1
# [15] = target: Fuc(a1-2)[Gal(a1-3)]Gal(b1-4)GlcNAc(b1-3)GalNAc
# Outline: as §1
# [16] = target: Fuc(a1-2)[Gal(a1-3)]Gal(b1-4)GlcNAc(b1-3)[Fuc(a1-2)[Gal(a1-3)]Gal(b1-4)GlcNAc(b1-6)]GalNAc
# Outline: as §1
# [17] = target: Fuc(a1-2)[Gal(a1-3)]Gal(b1-4)GlcNAc(b1-6)GalNAc
# Outline: as §1
# [18] = target: Fuc(a1-2)[Gal(a1-3)]Gal(b1-4)[Fuc(a1-3)]Glc
# Outline: as §1
# [19] = target: Fuc(a1-2)[Gal(a1-3)]Gal(b1-4)[Fuc(a1-3)]GlcNAc
# Outline: as §1
# [20] = target: Fuc(a1-2)[Gal(a1-3)]Gal(b1-4)[Fuc(a1-3)]GlcNAc(b1-3)GalNAc
# Outline: as §1
# [21] = target: Fuc(a1-2)[Gal(a1-4)]Gal(b1-4)GlcNAc
# Outline: as §1
# [22] = target: Fuc(a1-2)[GalNAc(a1-3)]Gal
# Outline: as §1
# [23] = target: Fuc(a1-2)[GalNAc(a1-3)]Gal(b1-3)GalNAc(a1-3)[Fuc(a1-2)]Gal(b1-4)GlcNAc
# Outline: as §1
# [24] = target: Fuc(a1-2)[GalNAc(a1-3)]Gal(b1-3)GalNAc(b1-3)Gal(a1-4)Gal(b1-4)Glc
# Outline: as §1
# [25] = target: Fuc(a1-2)[GalNAc(a1-3)]Gal(b1-3)GlcNAc
# Outline: as §1
# [26] = target: Fuc(a1-2)[GalNAc(a1-3)]Gal(b1-3)GlcNAc(b1-2)Man(a1-3)[Fuc(a1-2)[GalNAc(a1-3)]Gal(b1-3)GlcNAc(b1-2)Man(a1-6)]Man(b1-4)GlcNAc(b1-4)GlcNAc
# Outline: as §1
# [27] = target: Fuc(a1-2)[GalNAc(a1-3)]Gal(b1-3)GlcNAc(b1-2)Man(a1-3)[Fuc(a1-2)[GalNAc(a1-3)]Gal(b1-3)GlcNAc(b1-2)Man(a1-6)]Man(b1-4)GlcNAc(b1-4)[Fuc(a1-6)]GlcNAc
# Outline: as §1
# [28] = target: Fuc(a1-2)[GalNAc(a1-3)]Gal(b1-3)GlcNAc(b1-3)GalNAc
# Outline: as §1
# [29] = target: Fuc(a1-2)[GalNAc(a1-3)]Gal(b1-3)GlcNAc(b1-6)GalNAc
# Outline: as §1
# [30] = target: Fuc(a1-2)[GalNAc(a1-3)]Gal(b1-4)Glc
# Outline: as §1
# [31] = target: Fuc(a1-2)[GalNAc(a1-3)]Gal(b1-4)GlcNAc
# Outline: as §1
# [32] = target: Fuc(a1-2)[GalNAc(a1-3)]Gal(b1-4)GlcNAc(b1-2)Man
# Outline: as §1
# [33] = target: Fuc(a1-2)[GalNAc(a1-3)]Gal(b1-4)GlcNAc(b1-2)Man(a1-3)[Fuc(a1-2)[GalNAc(a1-3)]Gal(b1-4)GlcNAc(b1-2)Man(a1-6)]Man(b1-4)GlcNAc(b1-4)GlcNAc
# Outline: as §1
# [34] = target: Fuc(a1-2)[GalNAc(a1-3)]Gal(b1-4)GlcNAc(b1-2)Man(a1-3)[Fuc(a1-2)[GalNAc(a1-3)]Gal(b1-4)GlcNAc(b1-2)Man(a1-6)]Man(b1-4)GlcNAc(b1-4)[Fuc(a1-6)]GlcNAc
# Outline: as §1
# [35] = target: Fuc(a1-2)[GalNAc(a1-3)]Gal(b1-4)GlcNAc(b1-3)Gal(b1-4)GlcNAc
# Outline: as §1
# [36] = target: Fuc(a1-2)[GalNAc(a1-3)]Gal(b1-4)GlcNAc(b1-3)Gal(b1-4)GlcNAc(b1-3)Gal(b1-4)GlcNAc
# Outline: as §1
# [37] = target: Fuc(a1-2)[GalNAc(a1-3)]Gal(b1-4)GlcNAc(b1-3)GalNAc
# Outline: as §1
# [38] = target: Fuc(a1-2)[GalNAc(a1-3)]Gal(b1-4)GlcNAc(b1-3)[Fuc(a1-2)[GalNAc(a1-3)]Gal(b1-4)GlcNAc(b1-6)]GalNAc
# Outline: as §1
# [39] = target: Fuc(a1-2)[GalNAc(a1-3)]Gal(b1-4)GlcNAc(b1-6)GalNAc
# Outline: as §1
# [40] = target: Fuc(a1-2)[GalNAc(a1-3)]Gal(b1-4)[Fuc(a1-3)]GlcNAc
# Outline: as §1
# [41] = target: Fuc(a1-2)[GalNAc(a1-3)]Gal(b1-4)[Fuc(a1-3)]GlcNAc(b1-3)GalNAc
# Outline: as §1
# [42] = target: Fuc(a1-2)[GalNAc(a1-4)]Gal(b1-4)GlcNAc
# Outline: as §1
# [43] = target: Fuc(a1-2)[GalNAc(b1-3)]Gal
# Outline: as §1
binder,measurement,setting,value
B1,glycan array binding signal (z-score),[1],0.043
same,glycan array binding signal (z-score),Fuc(a1-2)Gal6S(b1-4)Glc,-0.531
same,glycan array binding signal (z-score),[2],0.125
same,glycan array binding signal (z-score),Fuc(a1-2)[Gal(a1-3)]Gal,-0.534
same,glycan array binding signal (z-score),[3],-0.08
same,glycan array binding signal (z-score),[4],-0.145
same,glycan array binding signal (z-score),[5],0.229
same,glycan array binding signal (z-score),[6],0.541
same,glycan array binding signal (z-score),[7],0.595
same,glycan array binding signal (z-score),[8],-0.384
same,glycan array binding signal (z-score),[9],-0.187
same,glycan array binding signal (z-score),[10],-0.404
same,glycan array binding signal (z-score),[11],-0.518
same,glycan array binding signal (z-score),[12],-0.318
same,glycan array binding signal (z-score),[13],1.24
same,glycan array binding signal (z-score),[14],-0.302
same,glycan array binding signal (z-score),[15],-0.069
same,glycan array binding signal (z-score),[16],-0.617
same,glycan array binding signal (z-score),[17],-0.524
same,glycan array binding signal (z-score),[18],-0.426
same,glycan array binding signal (z-score),[19],-0.363
same,glycan array binding signal (z-score),[20],-0.27
same,glycan array binding signal (z-score),[21],-0.516
same,glycan array binding signal (z-score),[22],-0.611
same,glycan array binding signal (z-score),[23],-0.514
same,glycan array binding signal (z-score),[24],0.107
same,glycan array binding signal (z-score),[25],0.788
same,glycan array binding signal (z-score),[26],-0.562
same,glycan array binding signal (z-score),[27],-0.169
same,glycan array binding signal (z-score),[28],0.075
same,glycan array binding signal (z-score),[29],-0.435
same,glycan array binding signal (z-score),[30],-0.704
same,glycan array binding signal (z-score),[31],-0.543
same,glycan array binding signal (z-score),[32],-0.197
same,glycan array binding signal (z-score),[33],-0.125
same,glycan array binding signal (z-score),[34],0.217
same,glycan array binding signal (z-score),[35],-0.224
same,glycan array binding signal (z-score),[36],0.699
same,glycan array binding signal (z-score),[37],-0.444
same,glycan array binding signal (z-score),[38],-0.146
same,glycan array binding signal (z-score),[39],-0.479
same,glycan array binding signal (z-score),[40],0.449
same,glycan array binding signal (z-score),[41],0.984
same,glycan array binding signal (z-score),[42],0.324
same,glycan array binding signal (z-score),[43],1.14
